Test results: article PMC4336329 (PLoS ONE, 2015)
The whole screen tested about 310,000 compounds, of which about 14,000 (4.5%) showed an effect of 50% or more. Effects have a minus sign here. The list shows a part of the results.

These compounds were tested against human ether-à-go-go-related gene (hERG) potassium channel (human, UniProt Q12809) (assay: primary screen, population patch clamp on CHO cells stably expressing hERG).
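Also: peak tail current of the secondary pulse compared with the same well before compound.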

Sequence of human ether-à-go-go-related gene (hERG) potassium channel (Q12809 whole entry, looked up): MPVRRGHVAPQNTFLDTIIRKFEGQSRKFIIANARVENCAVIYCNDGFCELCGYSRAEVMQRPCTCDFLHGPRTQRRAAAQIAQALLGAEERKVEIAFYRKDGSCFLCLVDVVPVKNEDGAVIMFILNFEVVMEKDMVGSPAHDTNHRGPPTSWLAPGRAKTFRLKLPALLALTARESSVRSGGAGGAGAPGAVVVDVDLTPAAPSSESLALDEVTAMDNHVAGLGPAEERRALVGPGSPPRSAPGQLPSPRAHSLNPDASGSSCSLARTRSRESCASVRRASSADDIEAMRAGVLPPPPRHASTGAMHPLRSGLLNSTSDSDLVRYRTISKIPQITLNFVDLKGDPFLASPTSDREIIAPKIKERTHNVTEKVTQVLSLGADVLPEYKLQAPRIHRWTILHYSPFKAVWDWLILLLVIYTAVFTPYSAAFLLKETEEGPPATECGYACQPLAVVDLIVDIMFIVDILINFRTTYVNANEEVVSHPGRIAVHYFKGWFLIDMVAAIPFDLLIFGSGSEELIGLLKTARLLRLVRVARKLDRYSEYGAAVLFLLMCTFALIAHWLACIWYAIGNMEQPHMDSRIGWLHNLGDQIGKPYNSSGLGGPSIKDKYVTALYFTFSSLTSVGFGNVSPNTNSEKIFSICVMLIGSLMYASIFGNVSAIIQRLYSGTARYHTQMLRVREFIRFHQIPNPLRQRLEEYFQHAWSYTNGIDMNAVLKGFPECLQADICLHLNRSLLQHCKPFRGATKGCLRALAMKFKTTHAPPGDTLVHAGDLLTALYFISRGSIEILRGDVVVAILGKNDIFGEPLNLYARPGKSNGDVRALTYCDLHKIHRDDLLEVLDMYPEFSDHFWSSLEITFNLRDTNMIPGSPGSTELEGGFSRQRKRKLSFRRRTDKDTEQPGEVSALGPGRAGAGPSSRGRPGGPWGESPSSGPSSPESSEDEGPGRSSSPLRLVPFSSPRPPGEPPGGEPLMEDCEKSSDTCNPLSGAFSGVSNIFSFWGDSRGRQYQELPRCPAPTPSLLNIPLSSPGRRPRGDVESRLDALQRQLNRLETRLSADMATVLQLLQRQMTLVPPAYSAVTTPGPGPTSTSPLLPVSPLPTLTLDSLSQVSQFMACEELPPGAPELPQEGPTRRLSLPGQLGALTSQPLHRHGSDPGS

| Compound | hERG current change (%, negative = inhibition) at 10uM [%] |
| --- | --- |
| CCC1CCCCN1CCCCOc1cccc(Cl)c1.O=C(O)C(=O)O (stereo not drawn) | -72 |
| CC(C)C(=O)Nc1cccc(C(=O)Nc2cc([N+](=O)[O-])ccc2Cl)c1 | -0.874 |
| O=C(CCNC(=O)N1CC(=O)Nc2ccccc21)Nc1ccc(F)c(Cl)c1 | 3.66 |
| CN(C)CCCNc1c2c(nc3ccccc13)CCC2.Cl | -3.18 |
| Cn1c(NC(=O)c2cc(Cl)ccc2Cl)cc(=O)n(C)c1=O | -16.3 |
| CS(=O)(=O)c1ccc(Cl)c(NC(=O)COC(=O)c2cccc(C#N)c2)c1 | -0.788 |
| O=C(NCc1ccc(Cl)cc1)c1cc(=O)[nH]c2ccccc12 | 5.24 |
| CCOc1ccccc1N1CC(C(=O)Nc2nccs2)CC1=O (stereo not drawn) | 10.8 |
| Cc1cc(C)cc(N(CCC#N)C(=O)CN2C(=O)NC3(CCCC3)C2=O)c1 | 3.89 |
| Cc1cc(C)c2[nH]c(=O)c(CN(Cc3cccs3)C(=S)NCc3ccco3)cc2c1 | -15.7 |
| CCCCN(CC)CCCNC(=O)c1ccc(CS(=O)(=O)c2ccccc2C)o1 | -35.2 |
| COc1ccc(C(=O)/C=C/Nc2ccccn2)cc1 | 2.01 |
| O=C1C(c2ccccc2)NC(=S)N1C1CCCCC1 (stereo not drawn) | 12.6 |
| CCOC(=O)C1(Cc2cccc(OC)c2)CCCN(C(=O)c2ccc(OC)o2)C1 (stereo not drawn) | -17.1 |
| CCCCn1c(=O)c2c(c3ccccc31)OCC(=O)N2 | -4.7 |
| Cc1cccc(-c2cc3c(nn2)-c2ccccc2C3=O)c1 | -1.13 |
| CC(=O)c1cccc(-n2nnnc2SCC(=O)Nc2cc(C)on2)c1 | 3.51 |
| CC(C)(C)C1CCC(OCC(O)CN2CCN(c3ccccc3)CC2)CC1.Cl (stereo not drawn) | 1.42 |
| O=C(O)C/C(=C\c1ccc(N2CCOCC2)c([N+](=O)[O-])c1)c1nc2ccccc2s1 | 0.193 |
| O=C(CCSc1ccc(F)cc1)NNC(=O)c1ccc([N+](=O)[O-])cc1 | -47.7 |
| O=C(/C=C/c1cccs1)c1ccc([N+](=O)[O-])cc1 | 17.2 |
| CCOCCCNC(=O)C1CCN(S(=O)(=O)N2CCCCC2)CC1 | 3.94 |

| Compound | hERG current change (%, negative = inhibition) at 10uM [%] |
| --- | --- |
| CCOC(=O)C1CCCN(C(=O)CCNS(=O)(=O)c2cc(Br)cnc2N)C1 (stereo not drawn) | -0.00402 |
| CC1CCCN(C(=S)Nc2ccc3nc4n(c(=O)c3c2)CCCCC4)C1 (stereo not drawn) | -66.1 |
| O=C(CCCC(=O)c1ccc(F)cc1)c1ccc(F)cc1 | -25.8 |
| CN=C(NC#N)NCCSCc1nc[nH]c1C | 6.44 |
| COc1ccc(C(C(=O)NC2CCCC2)N(C(=O)c2ccco2)c2cccc(C(C)=O)c2)cc1OC (stereo not drawn) | 7.11 |
| CC(C)CNC(=O)C(=O)NNC(=O)C1CCCCC1 | 1.25 |
| CCOC(=O)c1cc(-c2ccccc2)n(CCC(=O)N2CCN(c3ccccc3OC)CC2)c1C | 2.59 |
| C#CCOCCOCCOCCNc1nc(N2CCN(C(=O)[C@H](CCC(=O)O)n3cc(C(N)CC(C)C)nn3)CC2)nc(N2CCN(C(=O)[C@H](CCC(=O)O)n3cc(C(N)[C@H](C)CC)nn3)CC2)n1.Cl (stereo partly drawn) | 10.3 |
| COc1cc(/C=N/NC(=O)C2COc3ccccc3O2)cc(OC)c1OC (stereo not drawn) | 0.732 |
| COc1cc(C2C(C(=O)c3cccs3)=C(O)C(=O)N2Cc2ccco2)cc(OC)c1OC (stereo not drawn) | 6.06 |
| O=C(Cc1c(F)cccc1Cl)OCN1C(=O)c2ccccc2C1=O | 12.4 |
| O=C(CCc1ccc(S(=O)(=O)NCCc2ccccc2)cc1)NCc1ccco1 | -12.3 |
| O=C(NCCN1CCOCC1)c1cccc(S(=O)(=O)N2CCCCCC2)c1 | 7.38 |
| CCc1ccc2c(c1)c1nnc(NN)nc1n2C | -36.4 |
| CCOc1ccc(C2C(C(=O)c3cccs3)=C(O)C(=O)N2Cc2cccnc2)cc1 (stereo not drawn) | 11.6 |
| Cc1ccc(CN2CC(C(=O)Nc3cccc(S(=O)(=O)N4CCCCC4)c3)CC2=O)cc1 (stereo not drawn) | 6.85 |
| CCc1cccc(C)c1NC(=O)CSc1nnc(-c2cc3cc(Br)ccc3o2)n1CC | 12.4 |
| CC(C)c1nnc(NC(=O)CSc2ncn[nH]2)s1 | 3.8 |
| Cc1ccc(C)c(NC(=O)CCNC(=O)N2C[C@H]3C[C@@H](C2)c2cccc(=O)n2C3)c1 | 5.35 |
| COCCN1Cc2cccc(C(=O)Nc3ccc4c(c3)OCCO4)c2C1=O | -5.24 |
| CC(C)(C)C1CCC(N2CCN(c3ccccc3)CC2)CC1 (stereo not drawn) | 11.9 |
| CN1CCN(C(=O)CCNC(=O)Cn2cnc3ccccc3c2=O)CC1 | 18.4 |

| Compound | hERG current change (%, negative = inhibition) at 10uM [%] |
| --- | --- |
| O=C(NCc1ccc(Cl)cc1)c1cc(=O)[nH]c2ccc(S(=O)(=O)N3CCOCC3)cc12 | 23.1 |
| NC(Cc1ccc(OC(F)F)cc1)C(=O)O (stereo not drawn) | -0.662 |
| CCc1ccccc1NC(=O)Cn1cccc1C1=NC(c2ccccc2)CO1 (stereo not drawn) | 11.9 |
| CN(C)c1cccc(C(=O)OC(C(=O)Nc2ccc(Cl)cc2C(F)(F)F)c2ccccc2)c1 (stereo not drawn) | -3.78 |
| Cl.Fc1c(F)c(F)c(N2CCNCC2)c(F)c1F | 3.51 |
| Cn1c(/C=N/NC(=O)c2ccccc2)nc2ccccc21 | -4.66 |
| NC(=O)C1CCN(c2c([N+](=O)[O-])cc(C(F)(F)F)cc2[N+](=O)[O-])CC1 | -23 |
| CC1CCCC(NC(=O)COC(=O)c2ccc(S(=O)(=O)N3CCOCC3)cc2)C1C (stereo not drawn) | 1.27 |
| CCOc1ccc(NC(=O)CCNS(=O)(=O)c2cccc3nonc23)cc1 | -28.5 |
| Cc1cccc(NS(=O)(=O)c2cc(C(=O)N3CCOCC3)ccc2Cl)c1 | -5.78 |
| O=C(CC1Nc2ccccc2NC1=O)NC1CCCCC1 (stereo not drawn) | 11.2 |
| O=C(Nc1cc2c3c(c1)C1CCCC1CN3CC1CCCC21)c1ccccc1 (stereo not drawn) | -12.4 |
| CCCn1c(CN2CCN(c3cccc(Cl)c3)CC2)nc2c1c(=O)n(C)c(=O)n2C | -63.6 |
| CC(C)Oc1cccc(C(=O)C2CCCN(C(=O)c3cc(C4CC4)[nH]n3)C2)c1 (stereo not drawn) | -19.9 |
| CCn1cc(SCC(=O)Nc2cc(C)on2)c2ccccc21 | 7.98 |
| Cc1ccc(CN2[C@@H](Cc3ccccc3)C(=O)CS2(=O)=O)cc1 | -1.62 |
| O=C(COc1ccc2ccccc2c1Br)Nn1cnnc1 | -1.78 |
| Nc1nonc1C(=O)N/N=C/c1cc2c(cc1[N+](=O)[O-])OCO2 | 11.7 |
| Cc1ccc(S(=O)(=O)NCc2ccccc2)cc1C(=O)NCCc1ccc(S(N)(=O)=O)cc1 | -0.586 |
| NS(=O)(=O)c1cccc(NS(=O)(=O)c2cccc(C(F)(F)F)c2)c1 | 6.96 |
| Cc1ccc(NC(=O)NNC(=O)COc2ccc(Cl)cc2)cc1 | 13.3 |
| O=C(NCc1ccccn1)c1ccc(CNS(=O)(=O)c2cccc(Cl)c2)cc1 | -0.298 |

| Compound | hERG current change (%, negative = inhibition) at 10uM [%] |
| --- | --- |
| Cc1cc(C)c(OCC(=O)OCC(=O)NC2CCC(C)CC2)c(C)c1 (stereo not drawn) | 14.7 |
| Cc1cccc(C)c1NC(=O)CN(C)C(=O)c1cc([N+](=O)[O-])ccc1N1CCOCC1 | 24.1 |
| O=C(Nc1cccc(C(=O)Nc2ccc(F)cc2F)c1)c1ccccc1 | 2.91 |
| CCCC(C(=O)NCC1CCCO1)N(Cc1ccccc1)C(=O)CNS(=O)(=O)c1ccccc1 (stereo not drawn) | -18.6 |
| COc1ccc(NC(=O)CCSc2ccc(F)cc2)cc1 | 1.71 |
| CCCNC(=O)Cc1ncn[nH]1 | 2.77 |
| COc1ccc(S(=O)(=O)Nc2ccc(S(=O)(=O)N3CCOCC3)cc2)cc1C | -7.72 |
| CC(=O)OCC1OC(OC(C)=O)C(NC(=O)c2cccnc2)C(OC(C)=O)C1OC(C)=O (stereo not drawn) | 0.0309 |
| O=S(=O)(c1cc(Cl)ccc1Cl)N1CCN2CCCC2C1 (stereo not drawn) | 13.3 |
| O=C(CSc1nnc2scc(-c3ccccc3)n12)NCc1ccco1 | 6.54 |
| O=C(OC1CCCCC1=O)c1cc(Cl)ccc1[N+](=O)[O-] (stereo not drawn) | 9.46 |
| O=C(NCCCn1ccnc1)c1cc(Br)c(Br)s1 | -32.5 |
| CCOC(=O)c1cc(=O)n2nc(-c3ccccc3F)nc2s1 | 1.85 |
| CCN(CC)c1ccc(CN2CCCCCC2)cc1 | -20.4 |
| CC(NS(C)(=O)=O)C(c1cccs1)N1CCN(Cc2ccccc2)CC1 (stereo not drawn) | 4.84 |
| CC(C)C[C@H](N)c1cn([C@@H](Cc2ccc(O)cc2)C(=O)N2CCNCC2)nn1.Cl | 6.42 |
| Cc1ccc(SCC(=O)NC(=O)NC(C)C)c(C)c1 | -3.77 |
| C=CCN(CC=C)CCOc1cccc2ccccc12.O=C(O)C(=O)O | 17.1 |
| CCCCNC(=O)N(O)C1N(/N=C/c2ccccc2OC)C(=S)SC1(C)C (stereo not drawn) | -8.05 |
| Cc1nnc(SCC(=O)Nc2ccc(F)cc2)n(N)c1=O | 6.78 |
| COC(=O)c1cccc(NC(=S)N2CCN(c3ccccc3F)CC2)c1 | 5.71 |
